# Out of some 340,000 compounds screened, about 6,900 (2%) were called active. No stated cut-off is given here; in the data, active means inhibition above about 30%; inactive means below that, where a call was filed. This is a selection; strong and weak results do not stand in their true shares. Where no call is shown, the source filed none.
# Target: D(2) dopamine receptor (Homo sapiens) (UniProt P14416)
# Experiment: HTS Assay for Allosteric Antagonists of the Human D2 Dopamine Receptor: Primary Screen for Antagonists; further: 0% is about no effect
# Conditions: HEK293 TREx D2 cells, calcium flux, dopamine EC80; at 10 µM; stronger effect = higher value
# In short: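 Overnight-induced (tetracycline, 30 C) HEK293 T-REx cells carrying force-coupled D2 receive a no-wash calcium dye, then compound, then EC80 dopamine at 180 s; signals are read kinetically throughout.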
# Chain of UniProt P14416 (P14416 whole entry, looked up): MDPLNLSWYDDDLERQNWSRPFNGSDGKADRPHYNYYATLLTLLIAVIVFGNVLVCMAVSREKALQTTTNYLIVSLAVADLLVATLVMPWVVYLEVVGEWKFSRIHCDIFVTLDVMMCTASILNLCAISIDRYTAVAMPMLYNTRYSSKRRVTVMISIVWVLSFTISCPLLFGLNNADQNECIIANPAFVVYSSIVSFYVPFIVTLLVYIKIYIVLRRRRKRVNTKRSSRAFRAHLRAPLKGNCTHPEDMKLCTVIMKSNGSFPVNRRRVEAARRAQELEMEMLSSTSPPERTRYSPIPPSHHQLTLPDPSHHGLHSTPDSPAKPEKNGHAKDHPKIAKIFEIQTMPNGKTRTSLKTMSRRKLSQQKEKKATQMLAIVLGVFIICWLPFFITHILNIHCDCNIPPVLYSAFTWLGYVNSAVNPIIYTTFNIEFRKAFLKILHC
row,Compound,inhibition
1,CCOC(=O)c1ccc(NC(=O)CCCn2c(=O)c3cccn3c3cccnc32)cc1,9.12%
2,C=CCN(C(=O)c1csnn1)C(C(=O)NCc1ccc(F)cc1)c1ccccc1 (configuration not stated),active: 51.6%
3,Cc1cccc(Cn2c(SCc3ccc(C(=O)NC4CCCC4)cc3)nc3cccnc32)c1,-16.4%
4,COc1ccc(NC(=O)C2CCN(S(=O)(=O)c3c(C)noc3/C=C/c3cccs3)CC2)cc1,4.38%
5,Cc1nn(-c2ccc(Cl)cc2)c2nc(-c3cccnc3)cc(C(F)(F)F)c12,17.8%
6,CCN(CC)CCCNC(=O)c1ccc(Cn2c(=O)[nH]c3cc(OC)c(OC)cc3c2=O)cc1,-4.9%
7,Cn1cc(C(=O)NCc2ccccc2Cl)c(=O)c2cc(S(=O)(=O)N3CCCCCC3)ccc21,-10.9%
8,Cc1ccc(-n2c(=O)c3c4c(sc3n(CC(=O)Nc3cccc(Cl)c3)c2=O)CCCCC4)cc1C,11.3%
9,Cc1ccc(S(=O)(=O)NCc2nc3nc(C)cc(C)n3n2)cc1,26.1%
10,Cc1cccc(C)c1OCC(=O)NC(Cc1c[nH]c2ccccc12)C(=O)O (configuration not stated),12.5%
11,Cc1ccc(C)c(CN2CCCN(CC(=O)Nc3ccc(C)c(C)c3)S2(=O)=O)c1,1.33%
12,Cc1cccn2c(=O)cc(CSc3nnc(NC(=O)COc4ccccc4)s3)nc12,-8.46%
13,CCc1ccc(-n2c(=O)c3sc4ccccc4c3n(CC(=O)NCc3ccccc3)c2=O)cc1,-2.31%
14,O=C(Nc1cccnc1)c1cc(-c2ccc(Cl)cc2)on1,0.304%
15,O=C(Cn1cccc1C(=O)c1ccccc1)NCc1ccccc1Cl,6.37%
16,O=C(c1ccc2c(c1)N(Cc1cccc(F)c1)C(=O)c1ccccc1S2)N1CCC2(CC1)OCCO2,-8.33%
17,COc1ccc(CNc2nc3c(-c4cccc(F)c4)nnn3c3ccccc23)cc1,6.61%
18,COc1ccc(N(C)C(=O)c2cc3c(s2)-c2c(C)cccc2OC3)c(OC)c1,-5.95%
19,COc1ccc(-c2c(C)nn3c(C(F)(F)F)cc(-c4ccccc4)nc23)cc1OC,8.38%
20,Cc1ccc(NC(=O)c2c(C)oc3c2C2=NCCN2C=N3)cc1F,10.7%
21,CN(CC(=O)NCc1ccc(F)cc1)S(=O)(=O)c1ccc2[nH]c3c(c2c1)CCCC3,-4.25%
22,COc1ccc(Nc2nnc(-c3ccc(C)c(S(=O)(=O)NCCO)c3)c3ccccc23)cc1C(N)=O,2.14%
23,CCN(c1ccccc1C)S(=O)(=O)c1nnc(NC(=O)c2ccco2)s1,2.4%
24,COc1ccccc1OCC(=O)N1CCC(c2nc3ccccc3o2)CC1,1.27%

row,Compound,inhibition
1,Cc1ccc(-n2ncc(C(=O)NC3CCCCC3)c2C2CCN(C(=O)OC(C)(C)C)CC2)cc1,0.752%
2,CCCS(=O)(=O)c1ncc(Cl)c(C(=O)Nc2c(C(=O)Nc3ccccc3)oc3ccccc23)n1,0.65%
3,CCOC(=O)c1cc(S(=O)(=O)N2CCN(c3cccc(C)c3C)CC2)[nH]n1,-15.8%
4,CNC(=O)c1c(NC(=O)c2nc(SCc3ccc(C)cc3)ncc2Cl)sc2c1CCCC2,-14.5%
5,COCCCNCCCCOc1ccccc1-c1ccccc1,active: 89.4%
6,Cc1ccc(NC(=O)Nc2cn(CC(C)C)c(=O)c3ccccc23)cc1N(C)C,-6.41%
7,COc1ccc(-c2cc(C(C)=O)c(C)n2CCC(=O)NCc2ccc(C)cc2)cc1,18.8%
8,COc1cccc(CNC(=O)C2CCN(C(=O)c3cnn(-c4ccccc4)c3-n3cccc3)CC2)c1,1.78%
9,COc1ccc(S(=O)(=O)Nc2cc(-c3cn4ccccc4n3)ccc2C)cc1,-9.31%
10,COc1ccc(NC(=O)c2cn(-c3ccccc3)nc2SC)cc1,active: 60.7%
11,CC(C)N(C(=O)Cn1cc(S(=O)(=O)Cc2ccc(C(F)(F)F)cc2)c2ccccc21)C(C)C,-0.0021%
12,Cc1ccc(Nc2c(-c3ccccc3O)nc3ccc(Br)cn23)cc1,8.85%
13,CCOc1ccc(-n2c(=O)c3c(C)c(C(=O)N(C)C)sc3n(CC(=O)Nc3c(C)cc(C)cc3C)c2=O)cc1,-4.28%
14,COc1ccc2c(Sc3ccc(Cl)cc3)c(C(=O)NCCCN3CCCCC3)[nH]c2c1,12.7%
15,Cc1cccc(NC(=O)CSc2nc3c([nH]c4ccccc43)c(=O)n2C)c1,12%
16,Cc1ccc(CN(C(=O)COc2ccc(C)c(C)c2)C2CCS(=O)(=O)C2)o1 (configuration not stated),8.38%
17,CCOC(=O)c1ccccc1NC(=O)CCc1c(C)nc2ncnn2c1C,7.44%
18,CCOCCCNC(=O)CCc1nnc2ccc(N3CCN(c4cccc(OC)c4)CC3)nn12,10.8%
19,Cc1ccc(NCc2nnc3n2CCCCC3)cc1Cl,-24.9%
20,COc1ccc(-c2cc(C(=O)Nc3c(C)nn(Cc4ccc(F)cc4)c3C)no2)cc1OC,23.8%
21,CN1C(C(=O)Nc2ccc(F)cc2F)=CC(c2cccs2)=NS1(=O)=O,-1.07%
22,CCn1nc(-c2ccccc2)c(-c2ccccc2)c(C(=O)OCCOC)c1=O,22.1%
23,Cc1ccc2c(=O)cc(C(=O)Nc3nnc(C)s3)oc2c1,-19.7%
